The structures appear in SMILES notation. Out of some 39,000 compounds screened, about 220 (0.56%) showed activity. Some of the results follow.
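Note: static incubation at 37 °C against the wild-type strain, values averaged over two biological replicates.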

In this test the test system is Escherichia coli K-12 BW25113. In words: relative growth (OD600 normalised to plate interquartile mean) (fraction); higher = less growth inhibition, active = 0.2 or less. The note with it: 50 µM; LB; incubation time: overnight (16-24 h).
Regarding `C[C@H](CO)N1C[C@H](C)[C@@H](CN(C)S(C)(=O)=O)Oc2c(NC(=O)Nc3ccccc3)cccc2C1=O`, the relative growth is inactive: 0.953.

`C[C@@H]1CN([C@H](C)CO)C(=O)Cc2cc(NC(=O)Cc3cn(C)c4ccccc34)ccc2O[C@@H]1CN(C)C(=O)Nc1cccc2ccccc12`: the relative growth was inactive: 1.02.

Turning to `Cc1ccc2c(c1)[C@@]1(CC(=O)N(Cc3ccccc3)C1=O)C(=O)N2CCCn1c(=O)c2c(ncn2C)n(C)c1=O`, the relative growth was inactive: 1.05.

Regarding `C[C@@H]1CCCCO[C@@H](CN(C)Cc2ccc(C(=O)O)cc2)[C@H](C)CN([C@@H](C)CO)C(=O)c2cc(NC(=O)C3CCCCC3)ccc2O1`, the relative growth was inactive: 1.02.

`COc1cccc(S(=O)(=O)N(C)C[C@H]2Oc3cc(C4=CCCC4)ccc3S(=O)(=O)N([C@@H](C)CO)C[C@@H]2C)c1`: the relative growth was inactive: 1.02.

Turning to `C[C@@H]1CN([C@@H](C)CO)C(=O)Cc2cc(NC(=O)Nc3cccc4ccccc34)ccc2O[C@H]1CN(C)C(=O)Nc1ccccc1`, the relative growth was inactive: 0.989.

On to `C[C@H]1CN([C@@H](C)CO)C(=O)Cc2cc(NC(=O)Nc3ccc(C(F)(F)F)cc3)ccc2O[C@H]1CN(C)Cc1ccc(Cl)c(Cl)c1`, for which the relative growth is inactive: 0.993.

Consider `C[C@H]1CN([C@@H](C)CO)S(=O)(=O)c2ccc(Br)cc2O[C@H]1CN(C)C(=O)c1cccnc1`, for which the relative growth was inactive: 1.01.

Consider `C[C@@H]1CN([C@@H](C)CO)C(=O)c2cccc(NC(=O)Nc3ccccc3)c2O[C@@H]1CN(C)Cc1ccc(-c2ccccc2)cc1`, for which the relative growth was inactive: 1.02.

With `C[C@@H]1CCCCO[C@H](CN(C)C(=O)c2ccncc2)[C@H](C)CN([C@@H](C)CO)C(=O)c2cc(NS(C)(=O)=O)ccc2O1`, the relative growth was inactive: 0.996.

`Cc1ccc(S(=O)(=O)Nc2ccc3c(c2)C(=O)N([C@@H](C)CO)C[C@H](C)[C@@H](CN(C)C(=O)c2ccccc2)OCCCC[C@@H](C)O3)cc1`: the relative growth is inactive: 0.992.

`C[C@@H]1CN([C@H](C)CO)C(=O)Cc2cc(NC(=O)Nc3ccc(C(F)(F)F)cc3)ccc2O[C@@H]1CN(C)Cc1ccc2c(c1)OCO2`: the relative growth is inactive: 1.06.

Take `COc1ccc(S(=O)(=O)N(C)C[C@@H]2Oc3ccc(NS(=O)(=O)c4ccccc4)cc3C(=O)N([C@H](C)CO)C[C@@H]2C)cc1`: the relative growth is inactive: 1.02.

For `C[C@H]1CC=CC[C@H](c2cccc(Cl)c2)NC(=O)[C@@H](Cc2ccccc2)N(C)C(=O)c2ccccc2O1`, the relative growth is inactive: 0.983.

Turning to `Cc1ccc(S(=O)(=O)N(C)C[C@H]2Oc3cc(C#Cc4ccccc4)ccc3S(=O)(=O)N([C@@H](C)CO)C[C@H]2C)cc1`, the relative growth is inactive: 1.04.

`C[C@@H]1CN([C@H](C)CO)C(=O)c2cc(C#CCN(C)C)cnc2O[C@H]1CN(C)Cc1ccc(C(=O)O)cc1`: the relative growth was inactive: 0.984.

Consider `C[C@H]1CN([C@@H](C)CO)S(=O)(=O)c2ccc(C#Cc3ccccc3)cc2O[C@@H]1CN(C)S(C)(=O)=O`, for which the relative growth is inactive: 1.02.

Consider `C[C@H]1CN([C@@H](C)CO)C(=O)Cc2cc(NS(C)(=O)=O)ccc2O[C@H]1CN(C)S(=O)(=O)c1ccc(Cl)cc1`, for which the relative growth was inactive: 0.952.

Consider `CC(C)NC(=O)N1Cc2cc(C(=O)NC3CCCCC3)nc(-c3cccc(-c4cccnc4)c3)c2[C@@H]1CCO`, for which the relative growth is inactive: 0.983.

Regarding `COCC(=O)N(C)C[C@@H]1Oc2cc(C#Cc3cccnc3)ccc2S(=O)(=O)N([C@@H](C)CO)C[C@H]1C`, the relative growth was inactive: 0.968.

As for `C[C@@H]1CCCCO[C@H](CN(C)C(=O)Nc2ccc3c(c2)OCO3)[C@H](C)CN([C@@H](C)CO)C(=O)c2cc(NS(=O)(=O)c3ccc(Cl)cc3)ccc2O1`, the relative growth was inactive: 1.02.

For `Cc1noc(C)c1NC(=O)N[C@@H]1C=C[C@H](CC(=O)NCCCN(C)C)O[C@H]1CO`, the relative growth was inactive: 1.04.

As for `CO[C@H](CN(C)S(=O)(=O)c1cn(C)cn1)[C@@H](C)CN(C(=O)Nc1ccc(C(F)(F)F)cc1)[C@@H](C)CO`, the relative growth is inactive: 0.699.

In the case of `C[C@@H]1CN([C@H](C)CO)C(=O)c2cc(NC(=O)Nc3ccc(C(F)(F)F)cc3)ccc2O[C@@H](C)CCCCO[C@@H]1CN(C)Cc1ccc(C(=O)O)cc1`, the relative growth is inactive: 0.982.

Turning to `COc1ccc(CN(C)C[C@H]2OCCCC[C@@H](C)Oc3ccc(NC(=O)c4ccccc4)cc3C(=O)N([C@@H](C)CO)C[C@H]2C)cc1`, the relative growth is inactive: 0.994.

As to `Cc1noc(C)c1NC(=O)N(C)C[C@@H]1Oc2ccc(NS(C)(=O)=O)cc2C(=O)N([C@@H](C)CO)C[C@@H]1C`, the relative growth is inactive: 1.03.

For the molecule `Cc1ccc(S(=O)(=O)Nc2ccc3c(c2)C(=O)N([C@H](C)CO)C[C@H](C)[C@H](CN(C)S(=O)(=O)c2ccc(C)cc2)OCCCC[C@@H](C)O3)cc1`, the relative growth is inactive: 1.03.

In the case of `CC(C)NC(=O)Nc1ccc2c(c1)C(=O)N([C@H](C)CO)C[C@H](C)[C@@H](CN(C)S(=O)(=O)c1ccc(F)cc1)O2`, the relative growth is inactive: 1.01.

As to `C[C@H]1CN([C@@H](C)CO)C(=O)c2cccc(NC(=O)c3ccc(-c4nccs4)cc3)c2O[C@@H]1CN(C)S(=O)(=O)c1ccc(Cl)cc1`, the relative growth is inactive: 1.01.

`c1cnc(N2CCN(Cc3ccc4c(c3)OCO4)CC2)nc1`: the relative growth is inactive: 0.99.

Turning to `COc1ccc(S(=O)(=O)Nc2ccc3c(c2)C(=O)N([C@@H](C)CO)C[C@H](C)[C@H](CN(C)C(=O)Nc2c(C)noc2C)OCCCC[C@@H](C)O3)cc1`, the relative growth is inactive: 0.982.

In the case of `C[C@H](CO)N1C[C@H](C)[C@@H](CN(C)Cc2ccc(-c3ccccc3)cc2)Oc2c(NS(=O)(=O)c3cccs3)cccc2C1=O`, the relative growth is inactive: 0.99.

On to `Cc1nn(C)cc1NC(=O)C[C@H]1CC[C@H]2[C@@H](COc3ccc(NC(=O)C4CCOCC4)cc3C(=O)N2C)O1`, for which the relative growth is inactive: 1.

For the molecule `C[C@@H]1CN([C@@H](C)CO)S(=O)(=O)c2ccc(C#CC(C)(C)O)cc2O[C@H]1CN(C)Cc1ccccc1`, the relative growth is inactive: 1.01.

For `C[C@@H]1CN([C@H](C)CO)C(=O)c2cc(NC(=O)CCN3CCOCC3)ccc2O[C@@H]1CN(C)S(=O)(=O)c1ccccc1`, the relative growth is inactive: 1.03.

Regarding `C[C@@H]1CN([C@H](C)CO)C(=O)c2c(c3ccccc3n2C)-c2ccccc2CO[C@H]1CN(C)S(C)(=O)=O`, the relative growth is inactive: 0.981.

Regarding `Cl.NC(CS)C(=O)O` (configuration not stated), the relative growth is inactive: 1.01.

Take `COc1ccc(NC(=O)N(C)C[C@H]2Oc3c(NS(=O)(=O)c4cn(C)cn4)cccc3C(=O)N([C@H](C)CO)C[C@H]2C)cc1`: the relative growth was inactive: 0.979.

Take `C[C@@H]1CN([C@H](C)CO)C(=O)Cc2cc(NS(C)(=O)=O)ccc2O[C@H]1CN(C)S(=O)(=O)c1ccc(F)cc1`: the relative growth is inactive: 1.02.

As for `C[C@@H]1CCCCO[C@H](CN(C)C(=O)CCCN(C)C)[C@H](C)CN([C@H](C)CO)C(=O)c2cc(N(C)C)ccc2O1`, the relative growth was inactive: 0.959.

Turning to `NS(=O)(=O)c1ccc(CCn2ccn(CC(=O)NCCC3=CCCCC3)c(=O)c2=O)cc1`, the relative growth is inactive: 0.898.

Regarding `C[C@@H]1CN([C@H](C)CO)C(=O)c2cc(C#Cc3cccc(F)c3)cnc2O[C@@H]1CN(C)Cc1ccccn1`, the relative growth is inactive: 1.

As to `C[C@H]1CN([C@@H](C)CO)C(=O)c2cc(NC(=O)Nc3ccc(F)cc3)ccc2O[C@@H]1CN(C)S(=O)(=O)c1cn(C)cn1`, the relative growth was inactive: 0.996.

For `C[C@@H]1CN([C@H](C)CO)C(=O)c2cc(NC(=O)Nc3ccccc3)ccc2O[C@@H](C)CCCCO[C@H]1CN(C)S(=O)(=O)c1cccs1`, the relative growth is inactive: 0.992.

Consider `C[C@H](CO)N1C[C@H](C)[C@@H](CN(C)S(C)(=O)=O)Oc2ccc(NC(=O)Nc3ccc(F)cc3)cc2CC1=O`, for which the relative growth was inactive: 0.993.

`Cc1cc(=O)n(C(N)=S)[nH]1`: the relative growth was inactive: 0.961.

Consider `O=C(Nc1cccc2cccnc12)[C@@H]1[C@H](c2cc(Cl)cc(Br)c2)CC(=O)N1C(=O)OCc1ccccc1`, for which the relative growth was inactive: 1.

On to `C[C@@H]1CCCCO[C@@H](CN(C)C(=O)CCC(F)(F)F)[C@@H](C)CN([C@H](C)CO)C(=O)c2cc(NC(=O)Nc3ccccc3)ccc2O1`, for which the relative growth is inactive: 0.977.

In the case of `C[C@H](CO)N1C[C@H](C)[C@@H](CN(C)C(=O)Nc2ccc(C(F)(F)F)cc2)Oc2c(NC(=O)Nc3ccc(F)cc3)cccc2C1=O`, the relative growth was inactive: 0.975.

Take `c1ccc(-c2cc(-c3nc4ccccc4[nH]3)c3ccccc3n2)cc1`: the relative growth was inactive: 1.

`Cc1ccc(S(=O)(=O)N(C)C[C@@H]2OCCCC[C@H](C)Oc3ccc(NC(=O)c4ccccc4)cc3C(=O)N([C@@H](C)CO)C[C@H]2C)cc1`: the relative growth is inactive: 0.998.

On to `C[C@H](CO)N1C[C@H](C)[C@H](CN(C)Cc2ccncc2)OCCCC[C@H](C)Oc2ccc(NC(=O)C3CCCCC3)cc2C1=O`, for which the relative growth is inactive: 1.02.

As to `O=C(O)C[C@@H]1CC[C@H]2[C@@H](COC[C@@H](O)CN2S(=O)(=O)c2ccc(F)cc2)O1`, the relative growth was inactive: 0.988.

With `C[C@H](CO)N1C[C@H](C)[C@H](CN(C)Cc2ccc(C(=O)Nc3ccccc3N)cc2)Oc2ccc(NC(=O)CCC(F)(F)F)cc2CC1=O`, the relative growth was inactive: 0.983.

`Cc1ccc(S(=O)(=O)N(C)C[C@H]2Oc3c(NS(=O)(=O)c4cccs4)cccc3C(=O)N([C@H](C)CO)C[C@H]2C)cc1`: the relative growth is inactive: 1.02.

On to `COc1ccc(COC[C@]23N=C4SCc5ccccc5CN4[C@H](c4ccccc4O2)[C@H]3COC(=O)NCCCCCC(=O)NO)cc1`, for which the relative growth is inactive: 0.995.

On to `C[C@H]1O[C@@H](OC[C@H]2O[C@@H](O[C@H]3CC[C@]4(C)[C@H]5CCC6=C(CC[C@@]7(C(=O)O[C@@H]8O[C@H](CO)[C@@H](O)[C@H](O)[C@H]8O[C@@H]8O[C@H](CO)[C@@H](O)[C@H](O)[C@H]8O)CCC(C)(C)C[C@@H]67)[C@]5(C)CC[C@H]4C3(C)C)[C@H](O)[C@@H](O)[C@@H]2O)[C@H](O)[C@@H](O)[C@@H]1O`, for which the relative growth is inactive: 0.994.

The record behind these values is the supplement of paper PMC9446081.
